Read counts are not given, so values of variants with three or more changes are uncertain.

Experimental findings from the RNAGym collection of RNA variant scans (doi:10.1093/nar/gkz1192) are described below.

Sequences and labels used below:
B1: CPEB3 Ribozyme (parent)
chain: UAACAGGGGGCCACAGCAGAAGCGUUCACGUCGCAGCCCCUGUCAGAUUCUGGUGAAUCUGCGAAUUCUGCUGUAUAUCUC

The variants in the data set derive from B1. The data set is described as follows: self-cleavage, relative activity (ratio to wild type); higher = more cleavage; in vitro, sequencing. The procedure, abridged: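 Relative activity was defined as the cleaved/total read fraction for a variant divided by the same fraction for the unmutated ribozyme. CPEB3 self-cleaving ribozyme libraries were made by rounds of error-prone PCR, barcoded, and transcribed in vitro with T7 RNA polymerase for 5 hours at 37°C, and cleavage ran through transcription plus a 15 min DNase I step before EDTA. Illumina sequencing of template-switched reverse transcripts gave the reads, and DNA sequencing mapped the barcodes. Averages come from three batches, using variants with at least 5 reads.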
For UUACAGGGGGCCAUAGCAGAAGCGUUCACGUCACAGCCGGCGUCAGAUUCUGGUGAAUCUGCGUAUUCUGCUGUAUAUCUC, the self-cleavage was determined as 0.14. The figure for UUACAGGGGGCCACAGCAGAAGCGUACACGUCGCAGCCCCUGUCGGAUUCUGGUGAAUCUGCGAAUUCUGCUGUAUAUCUC is 0.49. The figure for UUACAGGGGUCCACAGCAGAAGCGUUCACGUCGCAGCCCCCGUCAGAUUCUGGUGAAUCUGCGAAUUCUGAUGUAUAUCUC is 0.03; for UUACAGGGGGCCACAGCAGAAGCGUACACGUCGCAGCCCCUGUCAGUUUCUGGUGAAUCUGCGAAUUCUGCUGUAUAUCUC it is 0.5; for UUACAGUGGGCCACAGCAGAAGCGUUCACGUCGCAGCCCCUGUCAGAAUCUGGUGAAUCUGCGAAUUCUGCCGUAUAUCUC it is 0.17. The figure for UUACAGAGGGCCACAGCGGAAGCGUUCACGCCGCAGCCCCUGGCAGAUUCUGGUGAAUCUGCGAAUUCUGCUGUAUAUCUU is 0.06; for UUACAGGGGGCCACAGCAGAAGCGUUCACGUUGCAGCCCCUGGCAGACUCUGGUGAAUCUGCGAAUUCCGCUGUAUAUCUC it is 0.12; for UUACAGGGAGCCACAGCAGAAGCGUUCACGUCGCAGCCCCUGUCAGAUUCUGGUGAAUCUGCGAAUUCUGCUAUAUAUCUC it is 0.46. In the case of UUACAGGGGGCCACAGCAGAAGCGCUCACGUCGCAGCCCCUGGCAGAUUCUGGUGAAUCUGCGAGAUCCGCUGUAUACCUC, the self-cleavage is 0.04. Next, UUACAAGGGGCCACAGCAGAAGCGCUCACGUCGUAGCCCCCGUCAGAUUCUGGUGAAUCUGCGAAUUCUGCUGUAUAUCUC: 0.21.

Turning to UUACAGGGGGCCACAGUAGAAGCGUUCACGUCCCAGCCCCUGUCAGAUUCUGGUGAAUCUGCGGAUACUGCUGUAUAUCUC, the self-cleavage is 0.06. Next, UUACAGGGGACCACAGCAGAAGCGUUCACGUCGCAGCCCCUGCCAGAUUCUGGUGAGUCUGCGAAUUCUACUGUAUAUCUC: 0.07; UUACAGGGGGCCACAGCAGAAGUGUUCACGUCGCAGCCCCUGUCAGAUUCUGGUGAAUCUGCGAAUUCUGCUGAACAUCUC: 0.37. For the variant UUACAGGGGUCCACAGCAGAAGCGUUCACGUCGCAGCCCCUGCCAGAUUCUGGUGAAUCUGCGAAUUCUGCUGUAUAUCUC, the self-cleavage was 0.06. In the case of UUACAGGGGGCCACAGCAGAAGCGUCCACGUCGCAGCCCCUGUCAGAUCCUGGUGAAUCUGCGAAUUCUGCUGUUUAUCUC, the self-cleavage came out at 0.35. As to UUACAGGGGGCCACAGUAGGAGCGUUCACGUCGCAGCCCCUGUCAGAUUCUGGUGAAUCUGCGAAUUCUGCUGUAUAUCUC, the self-cleavage amounted to 0.51. With UUACAGGGGGCCACAGCAGAAGCGUUCACGUCGUAGCCCCUGUCAGAUCCUGGUGAAUCUGCGAGUUCUGCUGUAUAUCUC, the self-cleavage is 0.07. The figure for UUACAGGGGGCCACAGUAGAAGCGUUCGCGUCCCAGCCCCUGUCAGAUUCUGGUGAAUCUGCGAAUUCUGCUGUAUAUCUC is 0.28; for UUACAGGGGGCCACAGCAGAAGCGCUCACGUCACAGCCCCUGUCAGAUUCUGGUGAAUCUGCGAAUUCUGCUGUAUAUCUC it is 0.07. The figure for UUACAAGGGGACACAGCAGAAGCGUUCACGUCGCAGCCCCCGUCAGAUUCUGGUGAAUCUGCGGAUUCCGCUGUAUAUCUC is 0.21. Next, UUACAGGGGGCCACAGCAGAAGCGUCCACGUCGCAGCCCCUGUCAGAUUCUGGCGAAACUGCGAAUUCUGCUGUAUACCUC: 0.17. Consider UUACAGGGGGACACAGCAGAAGCGUUCGCGUCGCAGCCCCCGUCAGAUUCUGGUGAAUCUGCGAAUUCUGCUGUAUAUCUC, for which the self-cleavage was 0.31. Regarding UUACAGGGGGCCACAGCAGAAGCGCUCACGUCGCAGCCCCUGUCAGAUUCUGGUGAAUCUGCAAAUCCUGCCGUGUAUCUC, the self-cleavage was 0.26. For UUACAUGGGGCAACAGCAGAAGCGUUCUCGUCGCAGCCCCUGUCAGAUUCUGGUGAAUCUGCGGAUUCUGCUGUAUAUCUC, the self-cleavage turned out to be 0.07.

Consider UUACAGGGGGCCACAGCAGAAGCGUCCACGCCGCUGCCCCUGCCAGAUUCUGGUGAGUCUGCGAAUUCUGCUAUAUAUCUC, for which the self-cleavage was 0.29. In the case of UUACAGGGAGCCACAGCAGAAGCGUUCUCGUCGCAGCCCCUGCCAGAUUCCGGUGAAUCUGCGAAUUCUGCUGUAUAUCUC, the self-cleavage worked out at 0.06.

As for UUACAGGGGGCCAGAGUAGAUGCGUUCACGUCGCAGCCCCUGUCAGACUCUGGUGAAUCCGCGAAUUCUGCUGUAUAUCUC, the self-cleavage came to 0.05. With UUACAGGGAGCCACAGCUGAAGCGUUCACGUCGCAGCCCCUGUCAGAUUCUGGGGUAUCUGCGAAUUCUGCUGUUUAUCUC, the self-cleavage came out at 0.05.

With UUACAGGCGGCCACAGCAGAAGCGUUCACGUCGCAGCCCCUGACAGAUUCUGGUGAAUCUACGAAUUCUGCUGUAUAUCUC, the self-cleavage was 0.2. For UUACAGGGGGCCACAGCAGAAGCGUUCACGACGCAGCCCCUGUCAGAUCCCGGUGAAUCUGCGAAUUCUGCUGUAUAUCUC, the self-cleavage was 0.21.

Take UUACAGGGGGCCACACCGGAAGCGUUCACGUCGCAGCCCCUGUCGGAUUCUGGUGAAUCCGCGAAGUCUGCUGUAUAUCUC: the self-cleavage is 0.27. The figure for UUACAGGGGGCCACAGCAGAAGCGCUCACGUCACAGCCCCUGUCUGAUUCUGGCGAAUCUGCGAAUUCUGCUGUAUAUCUC is 0.24. The figure for UUACAGGGAGCCAUAGCAGAAGCGUUCACGUCGCAGCCCCUGUCAGAUUCUGGUGAAUCUGCGAAUUCUGCUGUAUAUCUC is 0.45; for UUACAGGGGGCCACAGCACAAGCGUUCUCGUCGCAGCCCCUGUCAGAUUCUAGUGAACCUGCGAAUUCUGCUGUAUAUAUC it is 0.22.
